# Measurements: the supplement of paper PMC10185492
# The other results are listed elsewhere or left out. These are enrichments in a pooled selection; single values are uncertain.
# Tested on: SARS-CoV-2 3CLpro (nsp5)
# Assay: substrate phage enrichment score (protease-eluted vs HEPES control, +1 offset) (ratio); higher = better cleaved substrate
# Details: selection round: 4; protease elution time: 15 min
# Method: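 Random heptapeptide substrate phage display (M13 pIII fusion, heptapeptide between an N-terminal biotinylated AviTag GLNDIFEAQKIEWHE and pIII; phages immobilised on streptavidin) eluted by cleavage with 50 nM protease in 20 mM HEPES at 37 °C. Selected phages were NGS sequenced, and the enrichment score is (reads in protease sample + 1)/(reads in HEPES blank-selection control + 1).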
row,Substance,substrate phage enrichment score
1,VSRYDNV,3.46
2,MRPEVNN,1.58
3,ANAASVK,> 22
4,CAAAQQQ,1.89
5,ETGRAAI,6.33
6,VARPTLQ,> 26
7,THLSPGS,2.25
8,SAAAPQQ,1.8
9,TKAFPDR,0.211
10,IHTQNGD,0.167
11,ATTTLPT,> 31
12,GFQAPGP,4.08
13,FRHRSDA,1.48
14,KREEETN,> 26
15,PSDRCKT,> 37
16,NEGARLQ,16.7
17,WENSYGR,0.222
18,WRPKSEW,> 21
19,WSAAAHH,0.667
20,RQLSTQC,> 26
21,PCDHHHH,12.1
22,CFKQIQY,> 76
23,WTPTATV,3.7
24,RTPVLNR,> 33
25,RVVLECR,4.23

row,Substance,substrate phage enrichment score
1,HGTMQSV,> 34
2,VNDSRDG,> 38
3,TELQGEL,0.0769
4,SSGVPVL,4.83
5,SPFDCNR,> 76
6,NEWKILD,0.375
7,TQLSPGQ,> 87
8,RGAAHHH,0.824
9,TGGHESP,> 24
10,PTRSCHA,12.5
11,PLHPSPR,0.388
12,CPGVEGG,> 84
13,SSFTIMQ,> 76
14,RTSDSCM,3
15,RRSRVGR,> 24
16,CVKPAPI,10.5
17,PGTILQL,> 22
18,HSLQPDI,> 34
19,TEPAIGV,> 25
20,RGHAWHP,> 22
21,PEEQNTS,> 102
22,VPKCNLQ,> 24
23,RPKLVTG,1
24,KERPNFS,0.7
25,DKATERI,0.211

row,Substance,substrate phage enrichment score
1,AVRPFST,13.3
2,TRKGARE,0.412
3,EERALPE,1.06
4,LREHSRW,0.217
5,WCRYYVL,10.5
6,QCHFSPK,2.75
7,SKAHYAT,2.11
8,VQGGSAA,1.08
9,SEVVQLQ,> 80
10,KSPVLHP,> 36
11,TDLSGKL,> 41
12,IPGAWTS,1.29
13,RNGNMHY,2.86
14,HPAPSHR,20
15,TCTEMPR,0.595
16,ARSTVDE,> 28
17,ARARTQM,0.192
18,SSMTSLQ,> 46
19,GSRGPSQ,10
20,CCRNPHA,> 27
21,ISNVKCQ,3.38
22,TATPSLQ,> 119
23,TKKGPTS,0.938
24,RSYIGPD,4.29
25,KPAVCPT,1.08

row,Substance,substrate phage enrichment score
1,RPAAICQ,3.67
2,GRSSGPL,2.82
3,WDNLNKR,0.783
4,DIILKTG,> 85
5,CQGGSAA,0.16
6,KSQLHTQ,> 29
7,GNTYTQG,1.17
8,LCGPSRS,> 146
9,TSKDPGG,> 22
10,SKFGHGG,4.5
11,TRKNCET,12
12,GSPRREA,1.43
13,STMQIPR,3.35
14,STSPFKG,0.714
15,VRPFRLQ,> 25
16,RKHLCPP,1.17
17,PQTYRPG,72.5
18,SRQEMRA,2.75
19,YQGGSAA,2.58
20,FGPNPVT,3
21,RHIRQST,7
22,VSGQADR,> 246
23,RKGSQNY,> 23
24,SQLRCHE,27
25,CINFQTQ,> 25

row,Substance,substrate phage enrichment score
1,PNEMINM,> 31
2,KSHEVRQ,> 33
3,GSIHRRP,5.25
4,TTIQHPM,0.959
5,HCTNETG,3.27
6,HRAAHHH,2.09
7,APAAHHH,0.792
8,TLHMSTQ,3.4
9,AGNPSWC,1.83
10,PSFGSPG,2.67
11,RSDSMNN,> 26
12,NDRCMVK,> 24
13,TQVRLES,> 21
14,LNNLLSQ,> 43
15,VLRCHVD,1
16,RRGECRM,> 34
17,LDTRRNG,1.15
18,STSSLTV,1
19,QHDPQEP,> 22
20,VTLHSGN,5.25
21,GFAYEND,> 32
22,CDLSASR,2.5
23,LGHAQDY,2
24,HAVPLGS,0.174
25,LAAHHHH,1.28

row,Substance,substrate phage enrichment score
1,SEPMCDR,12
2,TARKWAQ,5.08
3,AFKEATE,> 22
4,ALRHRNG,2.38
5,ITLQALG,> 27
6,QGGSAAA,0.754
7,AVNHPYV,> 40
8,YSAQRGK,4.08
9,ENRLNFQ,> 24
10,NTAPLIW,> 25
11,TTQDNER,7.75
12,PHIIITI,0.333
13,RSLAPSL,2.69
14,RCRDTRH,0.227
15,FGLCELQ,> 232
16,SSTCEGK,0.286
17,PKTGIHS,> 26
18,VGAAAHH,1.07
19,SQKTYTR,9.67
20,HRSEPQT,> 26
21,RASAHHH,0.24
22,SLPGKPN,0.333
23,LTGTSYP,4.2
24,GVLESVA,2.1
25,QSTRSVP,0.733

row,Substance,substrate phage enrichment score
1,TSAAAHH,0.738
2,VTDSTMR,1.36
3,SPTLIQC,3.17
4,DVVQTLQ,> 22
5,RNASQPT,> 24
6,LKHSTLQ,> 35
7,IQNWGTT,3.6
8,HLWPGNV,0.571
9,HCNAQTA,2.2
10,RETAHHH,0.596
11,HNTTSAG,3.07
12,QGAHPSA,> 52
13,AGTRHPD,> 27
14,SDAQVSK,0.4
15,AKVSTNW,0.571
16,QFPPPTS,0.333
17,EAERMYL,5.2
18,LKSKRTP,4
19,KECQPSG,1
20,NTGPVLR,> 68
21,FASGVKN,> 40
22,LTAAHHH,1.32
23,PATTQSN,> 28
24,WQSPRKD,> 36
25,ACSVRLQ,> 29

row,Substance,substrate phage enrichment score
1,KDGSSTV,2.91
2,FNSSLQS,15
3,IRSRLCR,21
4,TETPQRQ,> 23
5,TSLNQLC,> 211
6,NWNSTLQ,> 142
7,TRAAHHH,0.307
8,TVPSRLQ,15.7
9,SRTWPKE,4.6
10,RPGRNPV,> 25
11,SQEQSHT,2.43
12,CSGFARQ,6
13,QSASACK,0.389
14,GAAAHQH,1.12
15,GKLKLAP,2.2
16,IYSPNVN,> 53
17,CREELGT,5
18,CQLNPIE,> 64
19,LIFRVVV,1.79
20,KTYRPEC,4.5
21,TPGTSFR,0.0741
22,EDPARPS,> 31
23,HSATCLQ,> 37
24,TGHVILH,> 200
25,PKGPYNP,> 29

row,Substance,substrate phage enrichment score
1,APNPVSR,3.67
2,HLSASSP,3.27
3,VTKQEPD,3
4,VYTGPRD,> 111
5,RSCLQCG,> 22
6,PDAAAHH,1.75
7,KSNEDLV,> 49
8,EPNSILH,12.3
9,FQSHEPN,> 48
10,SPYFQGG,7.29
11,SALLQKR,5
12,HSARDFQ,0.609
13,NNAPVNI,3.38
14,VPAAHHH,0.494
15,CQHNVGS,0.68
16,CYESEMR,> 74
17,SEPVSTW,0.333
18,ASGEIDG,2.4
19,ERFLLHQ,4.17
20,HSKNQGG,> 21
21,PGDWGRP,0.0909
22,IGVSAHH,2.75
23,GPHKNSR,0.294
24,LNLKDKD,0.611
25,SGDPVSR,> 53

row,Substance,substrate phage enrichment score
1,AIHCPST,0.171
2,RPPELME,2.21
3,RMVVQLQ,> 46
4,AARDRAC,> 21
5,KCQEAFP,2.67
6,CMRSSLT,> 30
7,KARDSTR,3.33
8,VSRLQGD,> 26
9,RACTLHS,> 37
10,RLQSCTG,> 22
11,SDNVNRY,> 22
12,TRAEAPH,1.08
13,CNWQWTY,2.43
14,AGMTPMP,14.5
15,QPVTNLQ,> 174
16,PVQWPML,1.36
17,ARAELSS,> 28
18,PIDESSG,3.07
19,NRMSLLH,> 23
20,PQVRCQE,1.28
21,SLPSAHR,> 90
22,EAKNPRQ,11.3
23,ASIRPKA,0.917
24,SWKGGLP,2
25,TNYVREQ,> 22

row,Substance,substrate phage enrichment score
1,DASSAAT,0.867
2,LSTIECQ,> 21
3,VRNTTPH,0.529
4,SAAKPDV,2.71
5,CYVSENE,16
6,TGVHIPN,0.12
7,RPVLQSH,> 35
8,YHHHGAA,0.304
9,HNPGSGG,2.57
10,GTCLMQS,> 21
11,TTSDRIL,1.21
12,CNSPRPV,0.4
13,ASPLNNN,> 75
14,VRPHINN,1.2
15,VTSAGPS,2.18
16,VMAAHHH,0.25
17,RVCPTQH,> 28
18,AAMTDSK,0.917
19,QGSPVLQ,> 27
20,HAGCDTT,> 69
21,SYRCSLG,> 26
22,AASRELI,7
23,FASCGSV,7.33
24,RDWNPAM,1.16
25,PSQGLRP,> 39

row,Substance,substrate phage enrichment score
1,VLQASGY,12.3
2,PSHPRGA,20
3,ALSPRPG,0.115
4,FSAAHHH,0.792
5,NGGLNPG,4.94
6,IDRPIHC,0.109
7,PCRQNGR,> 23
8,AKELRDP,> 46
9,YQHDGLK,> 31
10,RRADAET,0.158
11,HPNQRWR,2.44
12,CLGSTPS,2.43
13,KALNLTP,0.286
14,DPRDGHL,1.35
15,QHEAALC,2.88
16,GSSVSLM,> 25
17,FENGQVK,11
18,SGKVGQL,> 84
19,QYSELQS,> 38
20,CHLSNRH,> 37
21,PRCWIRP,28
22,GFDRPID,1.08
23,ACEQMWA,> 37
24,THWVNKD,> 66
25,PTQKLGL,9

row,Substance,substrate phage enrichment score
1,PMSAAFE,1.7
2,SSRPTSA,0.444
3,SCHRPVS,3.5
4,CYQTRRF,0.0571
5,ETNIFRT,7.67
6,KSTQPSK,1.02
7,RELHAGP,> 61
8,PAGLMWQ,> 28
9,LPCTEAS,0.781
10,KPLFSTQ,0.652
11,RSWNTLS,1.36
12,LSPNDVK,> 63
13,SAATADY,> 42
14,ADSRRTL,0.353
15,VSSPVLQ,19
16,TKWSHQQ,0.273
17,ISHNVSR,> 31
18,TNCVDLT,0.947
19,CVAAHHH,0.44
20,VGSQCDK,0.444
21,ACQMAPR,> 21
22,EKSGPGS,2.29
23,SWRSVPG,> 86
24,NPHKTTL,3.88
25,TQKSQWS,4

row,Substance,substrate phage enrichment score
1,RSLCPQL,1.17
2,RDEKHTP,0.333
3,SVTIYGE,5.25
4,PHSKIQS,> 27
5,GCTLPRS,3.89
6,INSGPLR,> 64
7,ESERKRR,> 23
8,ELYFQGG,1.2
9,EELREVH,1.6
10,KKQSIMG,> 37
11,SAAAQHK,2.06
12,NKPVRLH,> 58
13,MYFQGGS,1.46
14,SPAHHHH,0.985
15,TKYLQSS,> 32
16,ARLPTQH,2.62
17,KYDYNKG,10
18,GSNARGP,0.389
19,NEVSRQR,> 28
20,VKCPGTD,4.12
21,TPTSLQG,2.07
22,AKCQTPR,21.5
23,KTGDGCV,0.5
24,MNHGVLQ,> 56
25,TWYRAEC,> 61

row,Substance,substrate phage enrichment score
1,AGAAAHH,0.5
2,SNPAAHH,15.5
3,SDAAHHH,0.622
4,CIVPTDS,0.733
5,PCEDGAV,4.75
6,VRCCCPV,0.333
7,SAAANHQ,1.56
8,WPGARPR,0.571
9,VHNMDST,> 25
10,ELSKNPN,5
11,SAAAHKQ,1.29
12,GDKAVMH,69.5
13,RGIVMQS,17.5
14,AQDSDRR,11.5
15,ESCSLGK,6.6
16,VDATETT,0.167
17,RDACFLT,2.67
